The source of these data is patent US11420968B2 (priority 2018, dated 2022).

Like-named read-outs stand apart in the source and are kept apart here.

One assay relates to Molt-4 cells. Briefly: cells. To be noted: Homo sapiens.
In a further assay the test system is RS4;11 cells. As to the kind of experiment: cells. The note with it: Homo sapiens.
The mark [1] stands for this setting: MOLT-4, read-out: Cellular activity (IC50, nM) Molt-4.
Setting [2] is: RS4-11, 48 h, read-out: Cellular activity (IC50, nM) RS4, 11.
The mark [3] stands for this setting: RS4-11, 48 h, read-out: Cellular activity (IC50, nM) RS4;11.

For orientation: IC50 means the concentration needed to halve the response being measured. As to `O=C(NS(=O)(=O)c1ccc(NCC2CCOCC2)c([N+](=O)[O-])c1)c1ccc(C2=CCC(N3CCCC3c3ccc(F)cc3C3CC3)CC2)cc1Oc1cnc2[nH]ccc2c1` (centres unmarked) [Example C53, 3-((1H-pyrrolo[2,3-b]pyridin-5-yl)oxy)-4′-(2-(2-cyclopropyl-4-fluorophenyl)pyrrolidin-1-yl)-N-((3-nitro-4-(((tetrahydro-2H-pyran-4-yl)methyl)amino)phenyl)sulfonyl)-2′,3′,4′,5′-tetrahydro-[1,1′-biphenyl]-4-carboxamide], the IC50 with Molt-4 cells (setting [1]) came to 4220 nM; in the assay on RS4;11 cells (setting [2]), 180 nM.
The corresponding values for `O=C(NS(=O)(=O)c1ccc(NCC2CCOCC2)c([N+](=O)[O-])c1)c1ccc(C2=CCC(N3CC(F)(F)CC3c3ccccc3C3CC3)CC2)cc1Oc1cnc2[nH]ccc2c1` (centres unmarked) [Example C90, 3-((1H-pyrrolo[2,3-b]pyridin-5-yl)oxy)-4′-(2-(2-cyclopropylphenyl)-4,4-difluoropyrrolidin-1-yl)-N-((3-nitro-4-(((tetrahydro-2H-pyran-4-yl)methyl)amino)phenyl)sulfonyl)-2′,3′,4′,5′-tetrahydro-[1,1′-biphenyl]-4-carboxamide] are 1470 nM and 291 nM.
The corresponding values for `CC1CCN(c2ccc(-c3ccc(C(=O)NS(=O)(=O)c4ccc(NCC5CCOCC5)c([N+](=O)[O-])c4)c(Oc4cnc5[nH]ccc5c4)c3)cc2)C1c1ccccc1C1CC1` (centres unmarked) [Example A76, 3-((1H-pyrrolo[2,3-b]pyridin-5-yl)oxy)-4′-(2-(2-cyclopropylphenyl)-3-methylpyrrolidin-1-yl)-N-((3-nitro-4-(((tetrahydro-2H-pyran-4-yl)methyl)amino)phenyl)sulfonyl)-[1,1′-biphenyl]-4-carboxamide] are 2520 nM and 47 nM.
The corresponding values for `O=C(NS(=O)(=O)c1ccc(NCC2CCOCC2)c([N+](=O)[O-])c1)c1ccc(C2=CCC(N3CCCC3c3cccc4ccccc34)CC2)cc1Oc1cnc2[nH]ccc2c1` (centres unmarked) [Example C11, 3-((1H-pyrrolo[2,3-b]pyridin-5-yl)oxy)-4′-(2-(naphthalen-1-yl)pyrrolidin-1-yl)-N-((3-nitro-4-(((tetrahydro-2H-pyran-4-yl)methyl)amino)phenyl)sulfonyl)-2′,3′,4′,5′-tetrahydro-[1,1′-biphenyl]-4-carboxamide] are over 10000 nM and 261 nM.
As to `CS(=O)(=O)N1CC=C(c2ccccc2C2CCCN2c2ccc(-c3ccc(C(=O)NS(=O)(=O)c4ccc(NCC5CCOCC5)c([N+](=O)[O-])c4)c(Oc4cnc5[nH]ccc5c4)c3)cc2)CC1` (centres unmarked) [Example A111, 3-((1H-pyrrolo[2,3-b]pyridin-5-yl)oxy)-4′-(2-(2-(1-(methylsulfonyl)-1,2,3,6-tetrahydropyridin-4-yl)phenyl)pyrrolidin-1-yl)-N-((3-nitro-4-(((tetrahydro-2H-pyran-4-yl)methyl)amino)phenyl)sulfonyl)-[1,1′-biphenyl]-4-carboxamide], the IC50 with Molt-4 cells (setting [1]) is 6290 nM; in the assay on RS4;11 cells (setting [3]), 31 nM.
The corresponding values for `CS(=O)(=O)N1CCC(CNc2ccc(S(=O)(=O)NC(=O)c3ccc(-c4ccc(N5CCC[C@@H]5c5ccccc5C5CC5)cc4)cc3Oc3cnc4[nH]ccc4c3)cc2[N+](=O)[O-])CC1` [Example G129, (R)-3-((1H-pyrrolo[2,3-b]pyridin-5-yl)oxy)-4′-(2-(2-cyclopropylphenyl)pyrrolidin-1-yl)-N-((4-(((1-(methylsulfonyl)piperidin-4-yl)methyl)amino)-3-nitrophenyl)sulfonyl)[1,1′-biphenyl]-4-carboxamide] are 974 nM and 35 nM.
The corresponding values for `C[C@]1(O)CC[C@H](CNc2ccc(S(=O)(=O)NC(=O)c3ccc(N4CCC5(CC(N6CCC[C@H]6c6ccccc6C6CC6)C5)C4)cc3Oc3cnc4[nH]ccc4c3)cc2[N+](=O)[O-])CC1` (stereo partly drawn) [Example F122, 2-((1H-pyrrolo[2,3-b]pyridin-5-yl)oxy)-4-(2-((S)-2-(2-cyclopropylphenyl)pyrrolidin-1-yl)-6-azaspiro[3.4]octan-6-yl)-N-((4-((((1r,4r)-4-hydroxy-4-methylcyclohexyl)methyl)amino)-3-nitrophenyl)sulfonyl)benzamide] are over 10000 nM and 57 nM.
For `CN(C)c1c(Cl)cccc1C1CCCN1C1CC2(CCN(c3ccc(C(=O)NS(=O)(=O)c4ccc(NCC5CCOCC5)c([N+](=O)[O-])c4)c(Oc4cnc5[nH]ccc5c4)c3)CC2)C1` (centres unmarked) [Example F36, 2-((1H-pyrrolo[2,3-b]pyridin-5-yl)oxy)-4-(2-(2-(3-chloro-2-(dimethylamino)phenyl)pyrrolidin-1-yl)-7-azaspiro[3.5]nonan-7-yl)-N-((3-nitro-4-(((tetrahydro-2H-pyran-4-yl)methyl)amino)phenyl)sulfonyl)benzamide], the values for the IC50 in the assay with Molt-4 cells (setting [1]), in the assay on RS4;11 cells (setting [2]) and with RS4;11 cells (setting [3]) were 6090 nM, 31 nM and 31 nM, respectively.
In the case of `O=C(NS(=O)(=O)c1ccc(OCC2CCC(O)CC2)c([N+](=O)[O-])c1)c1ccc(-c2ccc(N3CCCC3c3ccccc3Cl)cc2)cc1Oc1cnc2[nH]ccc2c1` (centres unmarked) [Example G6, 3-((1H-pyrrolo[2,3-b]pyridin-5-yl)oxy)-4′-(2-(2-chlorophenyl)pyrrolidin-1-yl)-N-((4-((4-hydroxycyclohexyl)methoxy)-3-nitrophenyl)sulfonyl)-[1,1′-biphenyl]-4-carboxamide], the values for the IC50 with Molt-4 cells (setting [1]) and in the assay on RS4;11 cells (setting [2]) were 6090 nM and 59 nM, respectively.
Regarding `CC1CC(CNc2ccc(S(=O)(=O)NC(=O)c3ccc(N4CCC5(CC4)CC(N4CCC[C@H]4c4ccccc4C4CC4)C5)cc3Oc3cnc4[nH]ccc4c3)cc2[N+](=O)[O-])CC(C)O1` (stereo partly drawn) [Example F120, 2-((1H-pyrrolo[2,3-b]pyridin-5-yl)oxy)-4-(2-((S)-2-(2-cyclopropylphenyl)pyrrolidin-1-yl)-7-azaspiro[3.5]nonan-7-yl)-N-((4-(((2,6-dimethyltetrahydro-2H-pyran-4-yl)methyl)amino)-3-nitrophenyl)sulfonyl)benzamide], the IC50 worked out at 2520 nM in the assay on Molt-4 cells (MOLT-4, read-out: Celluclar activity (IC50, nM) Molt-4); 2520 nM with Molt-4 cells (setting [1]); 2.7 nM in the assay with RS4;11 cells (setting [3]); 2.7 nM in the assay on RS4;11 cells (RS4-11, read-out: Celluclar activity (IC50, nM) RS 4, 11).
Turning to `CNCCC(=O)N1CCC(c2ccccc2[C@H]2CCCN2c2ccc(-c3ccc(C(=O)NS(=O)(=O)c4ccc(NCC5CCOCC5)c([N+](=O)[O-])c4)c(Oc4cnc5[nH]ccc5c4)c3)cc2)CC1` [Example A106, (R)-3-((1H-pyrrolo[2,3-b]pyridin-5-yl)oxy)-4′-(2-(2-(1-(3-(methylamino)propanoyl)piperidin-4-yl)phenyl)pyrrolidin-1-yl)-N -((3-nitro-4-(((tetrahydro-2H-pyran-4-yl)methyl)amino)phenyl)sulfonyl)-[1,1′-biphenyl]-4-carboxamide], the IC50 with Molt-4 cells (setting [1]) was over 10000 nM; in the assay with RS4;11 cells (setting [3]), 175 nM.
For `CN1CCC(c2ccccc2[C@H]2CCCN2c2ccc(-c3ccc(C(=O)NS(=O)(=O)c4ccc(NCC5CCOCC5)c([N+](=O)[O-])c4)c(Oc4cnc5[nH]ccc5c4)c3)cc2)CC1` [Example A100, (R)-3-((1H-pyrrolo[2,3-b]pyridin-5-yl)oxy)-4′-(2-(2-(1-methylpiperidin-4-yl)phenyl)pyrrolidin-1-yl)-N-((3-nitro-4-(((tetrahydro-2H-pyran-4-yl)methyl)amino)phenyl)sulfonyl)-[1,1′-biphenyl]-4-carboxamide], the IC50 was over 10000 nM in the assay with Molt-4 cells (setting [1]) and 4.6 nM in the assay on RS4;11 cells (setting [3]).
The corresponding values for `O=C(NS(=O)(=O)c1ccc(NCC2CCOCC2)c([N+](=O)[O-])c1)c1ccc(N2CCC3(CC2)CC(N2C(c4ccccc4C4CC4)CC4CC42)C3)cc1Oc1cnc2[nH]ccc2c1` (centres unmarked) [Example F87, 2-((1H-pyrrolo[2,3-b]pyridin-5-yl)oxy)-4-(2-(3-(2-cyclopropylphenyl)-2-azabicyclo[3.1.0]hexan-2-yl)-7-azaspiro[3.5]nonan-7-yl)-N-((3-nitro-4-(((tetrahydro-2H-pyran-4-yl)methyl)amino)phenyl)sulfonyl)benzamide] are over 10000 nM and 36 nM.
In the case of `O=C(NS(=O)(=O)c1ccc(NCC2CCOCC2)c([N+](=O)[O-])c1)c1ccc(C2=CCC(N3CCCC3c3ccccc3OC3CC3)CC2)cc1Oc1cnc2[nH]ccc2c1` (centres unmarked) [Example C42, 3-((1H-pyrrolo[2,3-b]pyridin-5-yl)oxy)-4′-(2-(2-cyclopropoxyphenyl)pyrrolidin-1-yl)-N-((3-nitro-4-(((tetrahydro-2H-pyran-4-yl)methyl)amino)phenyl)sulfonyl)-2′,3′,4′,5′-tetrahydro-[1,1′-biphenyl]-4-carboxamide], the IC50 was over 10000 nM in the assay with Molt-4 cells (setting [1]) and 226 nM in the assay with RS4;11 cells (setting [2]).
In the case of `CN(C)C1CC1c1ccccc1[C@H]1CCCN1c1ccc(-c2ccc(C(=O)NS(=O)(=O)c3ccc(NCC4CCOCC4)c([N+](=O)[O-])c3)c(Oc3cnc4[nH]ccc4c3)c2)cc1` (stereo partly drawn) [Example A97, 3-((1H-pyrrolo[2,3-b]pyridin-5-yl)oxy)-4′-((2R)-2-(2-(2-(dimethylamino)cyclopropyl)phenyl)pyrrolidin-1-yl)-N-((3-nitro-4-(((tetrahydro-2H-pyran-4-yl)methyl)amino)phenyl)sulfonyl)-[1,1′-biphenyl]-4-carboxamide], the figures for the IC50 in the assay on Molt-4 cells (setting [1]) and with RS4;11 cells (setting [3]) were 1410 nM and 4.8 nM, respectively.
As to `O=C(NS(=O)(=O)c1ccc(NCC2CCOCC2)c([N+](=O)[O-])c1)c1ccc(-c2cc3nc(N4CCCC4c4ccccc4)ccn3n2)cc1Oc1cnc2[nH]ccc2c1` (centres unmarked) [Example F1, 2-((1H-pyrrolo[2,3-b]pyridin-5-yl)oxy)-N-((3-nitro-4-(((tetrahydro-2H-pyran-4-yl)methyl)amino)phenyl)sulfonyl)-4-(5-(2-phenylpyrrolidin-1-yl)pyrazolo[1,5-a]pyrimidin-2-yl)benzamide], the IC50 in the assay on Molt-4 cells (setting [1]) was 6550 nM; in the assay with RS4;11 cells (setting [2]), 1800 nM.
